± gives the standard error. This sample is rich in variants without activity.
B1: glmS ribozyme (parent)
chain: AUAAAAGCGCCAGAACUACAGAAAUGUAGUUGACGAGGAGGAGGUUUAUCGAAUUUUCGGCGGAUGCCUCCAAA

Variants of: B1
Test: self-cleavage kobs at 160 uM GlcN6P; higher = faster cleavage; RNA array
Conditions: with glucosamine-6-phosphate
In short: (§1)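 Sequenced MiSeq chips were the platform: E. coli RNA polymerase transcribed barcoded ribozyme variants on them in situ, and a hybridised Cy3 probe tracked these at 37 °C. After glucosamine-6-phosphate (40 μM to 10 mM) in HEPES/KCl/Mg(OAc)2 buffer was flowed in, tiles were imaged over ~14 h. Signals normalised to baseline and to non-cleaving reference variants were reduced to per-tile medians and fit to one- or two-exponential decays to obtain kobs. kcat and KM were derived through weighted Michaelis–Menten fits across concentrations.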

self-cleavage kobs at 160 uM GlcN6P, 4.29e-05 ± 1.9e-05 s⁻¹:
G40C A64G

self-cleavage kobs at 160 uM GlcN6P, 7.21e-05 ± 2e-05 s⁻¹:
G41A A64G

self-cleavage kobs at 160 uM GlcN6P, < 1e-05 s⁻¹:
U31A G38C
U30C C34A G37A
A39U G63A
G13U G41A C71U
U30A U47C C70G
A39C C58U
A15U C16A A36C A53C
A42C C50U C58G
G35U U49A C68U
C16G G60U
G41U C58U G59A C70U
G26U G44C U55A A64U C67G
A42U C68U C70G
C16U G32C A52G
G40A C58A G66U
G29U A48U A53U
G35A G38U
U30A A48C C67G
C16U U31G G35C A42U G43C G63U
G38C C61U C70A
G35C A39C G51U
C16A G29C C58U
G43C C61A U69C
U31C G38C A42G C71G
A48U G62U A64G

Variants of: B1
Test: self-cleavage kobs at 2500 uM GlcN6P; higher = faster cleavage; RNA array
Conditions: with glucosamine-6-phosphate
In short: as §1

self-cleavage kobs at 2500 uM GlcN6P, 0.000837 ± 0.00017 s⁻¹:
G40C A64G

self-cleavage kobs at 2500 uM GlcN6P, 0.000114 ± 1.6e-05 s⁻¹:
A6U A53U

self-cleavage kobs at 2500 uM GlcN6P, < 1e-05 s⁻¹:
G9A A39C G63A C70G
G9A G40U G63A A64U
C10A C16U A64U
G9C G40C G51U
G7C C16A C70U
G7A A14G C16A
G7U C34A A36U A53G U54C
C11A G38C C61U U69C
A39U G63A
C10U A15C G32U G43A
A6U G13A A48G
A6U G29A C34U
G9U A48U C58A G66U
G7A A12G G62A G63U
C8G A15U G44C U54C
C8U C58U C67U U69C
G7U C10G U31A U49C
C16G G60U
C11A C16A G29U G43U C70U
A6C A14C C16G A64C
C10G A14C G37A C70G
C8A C10U C11A U45C U65G
G7C U31A G63U C70G
A42U C68U C70G
C8A G29A G38U
A6C A14G U46G A48U C58A
C8G A14U U31A G41A U49G
G9U G13C U31G U56C G66A
G9U G41C G59A C71U
C8G A15G C16U A36G
G9C A14C G40A C61A
G40A C58A G66U
C8U C34A U46A
G9C A33C A36G A39G
C10A C11A A36G
G38C C61U C70A
C8U U30A G35A G40U C50G
G9U U57C U65C
G35C A39C G51U
G7A G9U A33C U47G
A6C U47C U54G C61G
A6U G38C U69C
A6U A12C A33U G44A G63U
C8U G35C C67G
C8A G59A C70U
G43C C61A U69C
U31C G38C A42G C71G
G9A A52G G62A
G9U U54C G62C
C10A A12U U45C A64U
A48U G62U A64G

self-cleavage kobs at 2500 uM GlcN6P, 7.4e-05 ± 2.8e-05 s⁻¹:
C10U G26A

self-cleavage kobs at 2500 uM GlcN6P, 0.00071 ± 0.00016 s⁻¹:
G41A A64G

self-cleavage kobs at 2500 uM GlcN6P, 0.000135 ± 4.1e-05 s⁻¹:
C11A U54A U55G

self-cleavage kobs at 2500 uM GlcN6P, 7.5e-05 ± 3.1e-05 s⁻¹:
C11A A12U U45G U55A C70U

Variants of: B1
Test: self-cleavage kobs at 10000 uM GlcN6P; higher = faster cleavage; RNA array
Conditions: with glucosamine-6-phosphate
In short: as §1

self-cleavage kobs at 10000 uM GlcN6P, 0.000245 ± 5.6e-05 s⁻¹:
C11A A12U U45G U55A C70U

self-cleavage kobs at 10000 uM GlcN6P, < 1e-05 s⁻¹:
C16G G60U
G9U G41C G59A C71U
C8U U30A G35A G40U C50G
A6U G38C U69C

self-cleavage kobs at 10000 uM GlcN6P, 0.00128 ± 0.00023 s⁻¹:
G41A A64G

self-cleavage kobs at 10000 uM GlcN6P, 0.000124 ± 1.8e-05 s⁻¹:
C11A U54A U55G

self-cleavage kobs at 10000 uM GlcN6P, 0.000159 ± 2.3e-05 s⁻¹:
A6U A53U

self-cleavage kobs at 10000 uM GlcN6P, 0.000811 ± 9.3e-05 s⁻¹:
G40C A64G
